Test results published in the supplement of paper PMC3334620.
In all, about 33,000 sequences were measured (“E-score (-0.5 to 0.5)”: median about -0.016, highest 2% from about 0.32 on). This is one part of the list.

Each sequence was assayed against T1, Stp1 (UniProt B3LFK1) (assay: PBM E-score (8-mer binding enrichment) (E-score (-0.5 to 0.5)); higher = stronger / more preferred TF binding; most listed sequences are background and not binding sites). Conditions: protein concentration: 200 nM; construct: GST-full length.
T1 sequence: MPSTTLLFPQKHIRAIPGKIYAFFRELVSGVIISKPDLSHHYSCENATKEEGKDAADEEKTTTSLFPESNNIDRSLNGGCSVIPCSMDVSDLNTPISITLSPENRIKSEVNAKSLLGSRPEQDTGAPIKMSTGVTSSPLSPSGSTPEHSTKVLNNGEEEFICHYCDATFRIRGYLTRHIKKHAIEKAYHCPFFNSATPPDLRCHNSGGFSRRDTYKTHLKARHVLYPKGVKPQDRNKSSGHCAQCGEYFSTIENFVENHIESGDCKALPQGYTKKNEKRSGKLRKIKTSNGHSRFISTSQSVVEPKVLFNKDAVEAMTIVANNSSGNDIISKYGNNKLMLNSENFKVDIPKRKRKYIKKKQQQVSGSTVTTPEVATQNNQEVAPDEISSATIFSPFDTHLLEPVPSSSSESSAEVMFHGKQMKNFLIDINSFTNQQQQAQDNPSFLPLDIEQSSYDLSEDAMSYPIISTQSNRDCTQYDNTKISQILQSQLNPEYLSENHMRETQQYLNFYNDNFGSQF
Summary of the method: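 Yeast transcription factors, full-length or as DNA-binding domains, were expressed with a GST tag using PURExpress in vitro transcription/translation. At about 100-200 nM they were applied to universal all-10-mer Agilent arrays, double-stranded by primer extension on fresh or once-stripped slides. Fluorescent anti-GST detected bound protein, and masliner normalised the scans. E-scores for ungapped eight-base words, pooled with reverse complements, came from the Universal PBM Analysis Suite.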

Row | Sequence | PBM E-score
1 | ACTGATAT | 0.205
2 | AGCTAACC | -0.159
3 | AAGCATGG | -0.206
4 | ACACAAAT | 0.248
5 | AACACGAG | -0.0176
6 | CCGCAGAG | -0.124
7 | ATGATGCA | 0.0889
8 | ATTGCATA | 0.189
9 | TCCGAGAA | 0.18
10 | GAATGACA | -0.15
11 | AATAGCGT | 0.175
12 | AGGCGGTA | -0.0932
13 | CGAGCTCA | -0.0314
14 | CAGGTAAG | -0.148
15 | GTAAGCGA | 0.0187
16 | CCATAAAC | 0.102
17 | CATACACG | 0.13
18 | CTGCAGGA | -0.0388
19 | AGGTCGAA | -0.00966
20 | AGACGCGC | 0.0493
21 | CCAGGCGG | -0.0554
22 | CGACCCGA | -0.312
23 | AAGAATGT | 0.0361
24 | GGGTGGCA | -0.121
25 | GGTCCCAC | -0.302

Row | Sequence | PBM E-score
26 | CCCTTTCA | -0.15
27 | GTGGCCTA | -0.279
28 | ATGGGGTG | 0.0671
29 | GGTTACGA | -0.0716
30 | CTAATCAA | 0.0583
31 | CGTCTAAC | 0.119
32 | AGGACGCC | 0.117
33 | ATTAAGGC | 0.196
34 | CACTTTAC | -0.00726
35 | CAGCGAAA | -0.0495
36 | CCGTATCA | 0.327
37 | TTGATAAA | 0.294
38 | ATAACGGG | -0.184
39 | GACAAGTC | -0.147
40 | ATGAATCA | 0.077
41 | CACGGGGA | 0.0435
42 | ATTACAAG | 0.0576
43 | GCTAATAC | 0.0596
44 | CTCTTCCA | -0.0123
45 | ACATTATA | 0.0327
46 | CACATCTG | -0.182
47 | CCTTCGTA | 0.0218
48 | CTTTCGGC | -0.12
49 | TAAGCTAA | 0.147
50 | AGTACGGG | -0.156

Row | Sequence | PBM E-score
51 | AATCGCAA | 0.165
52 | CTGTTTAA | 0.141
53 | ATACCGGC | 0.0769
54 | GTACCGAC | -0.0501
55 | AGAACTCT | -0.157
56 | CGATAGTC | -0.0162
57 | CGTGGCAA | 0.153
58 | TCATTTAA | -0.00121
59 | CCACACCA | 0.077
60 | AGGCACCG | 0.272
61 | GAGAGGCA | 0.208
62 | TCTGGTAA | 0.0972
63 | ATGGATAC | -0.0697
64 | AAACAAAG | 0.129
65 | GTCGCCAC | 0.0471
66 | AAGTAAAC | -0.152
67 | ATGGTTAC | 0.0165
68 | CGCCACCA | -0.0579
69 | GCGTAACC | -0.0384
70 | CATATAGC | 0.0314
71 | CCGTTGAA | 0.0716
72 | CAGAATCC | -0.075
73 | TATAACGA | 0.0337
74 | ATCGGCTA | -0.108
75 | CCCACCTA | -0.103

Row | Sequence | PBM E-score
76 | ACGAGTGC | 0.09
77 | ACTAAACC | -0.0625
78 | GGCAATTA | 0.158
79 | GAGTGACC | -0.251
80 | GGATTGGA | 0.0144
81 | CGACTTAC | -0.132
82 | AAGGGCAG | -0.0369
83 | ACAGTAAA | 0.105
84 | AGAATCAG | 0.136
85 | ATGTATCA | 0.0802
86 | AAAATGTT | 0.0842
87 | GTAAATCA | 0.0719
88 | GCTGGACC | -0.195
89 | GAGTAATC | -0.0809
90 | CGAACCAC | 0.247
91 | AACCGATT | 0.0352
92 | AGTGCTCC | -0.164
93 | GGGACGGA | -0.13
94 | AAGTACGA | 0.0928
95 | TCCCACCA | -0.176
96 | CGGAACAG | 0.0271
97 | GAAGCCGC | 0.393
98 | GACTGCTC | -0.287
99 | CAGGCATA | 0.0777
100 | GATAGCAC | 0.0249

Row | Sequence | PBM E-score
101 | AGAGACCC | -0.194
102 | ACTCGTAT | -0.00239
103 | GACCGTGC | 0.0191
104 | CCGTCTCC | 0.147
105 | CAGGAGCG | 0.088
106 | AAGGGTGA | -0.14
107 | GTGAGCGA | -0.103
108 | AGGCTGAA | -0.118
109 | CACACTAA | 0.14
110 | ACTGCATA | 0.00255
111 | CCGCCCAG | -0.105
112 | GACTGCTA | -0.226
113 | ACCACAAC | 0.0979
114 | ATTTAGCG | 0.0158
115 | CCCAGACC | -0.255
116 | CGAGTCCA | -0.0882
117 | GAGCGAAA | 0.13
118 | CTGGGCTC | -0.264
119 | ACTTAACT | 0.0536
120 | CAATGGAC | 0.106
121 | CTCGGGCC | -0.0148
122 | CATCTAAA | 0.0999
123 | AAATGCCT | 0.285
124 | GACATGTA | 0.089
125 | ACTGCAAC | -0.196

Row | Sequence | PBM E-score
126 | GCCTAGCA | -0.0533
127 | GCCGAAGA | 0.134
128 | GGGGCAAA | 0.0199
129 | CCGGTCAG | -0.247
130 | ATCCGGTC | -0.235
131 | GTCCATAA | -0.104
132 | AATATCCT | 0.0422
133 | GCGCATAA | 0.00857
134 | ATCTCCCA | -0.118
135 | ATCTTACC | -0.0908
136 | GCATAGGA | 0.0236
137 | ATTAGGTA | 0.0951
138 | GTCCGCTA | -0.0918
139 | GAAGTGAA | 0.07
140 | AGCGCCCA | -0.225
141 | ACTAGGTG | -0.298
142 | TGCCTAAA | 0.0632
143 | CAACGCTG | -0.0111
144 | AGCGTTTA | -0.127
145 | CGCTGCCG | 0.264
146 | TAACTAAA | -0.0145
147 | GACGGGCC | -0.0674
148 | CCGCGGCC | 0.325
149 | AGAATCTG | -0.00098
150 | GCTAAAAA | 0.121

Row | Sequence | PBM E-score
151 | CACGCATA | -0.1
152 | ACGTCTTA | -0.132
153 | CAGAGTAC | 0.177
154 | TCAGCCCA | -0.171
155 | CATCACTC | -0.0239
156 | AGTGAGCC | -0.0302
157 | GATCAAAC | 0.00027
158 | AGTTGACG | 0.0138
159 | GAAGCCTA | -0.0763
160 | CTTTAAAG | -0.0166
161 | CATGTCAG | -0.0759
162 | CTGTCACC | -0.218
163 | GCTTGGCC | -0.0939
164 | CTAGAATC | -0.0796
165 | CGGGGCAA | -0.0113
166 | ACGACTGG | -0.13
167 | CCTGCCTC | -0.102
168 | CCCGTACG | 0.119
169 | CCTTCAAC | -0.14
170 | CGTTTCAC | 0.164
171 | ACACGAAC | 0.0564
172 | CACTAACA | 0.0786
